About 2,200 (0.71%) of roughly 310,000 compounds showed an effect of 50% or more. The effect is printed as a negative number. Some of the results follow.

human ether-à-go-go-related gene (hERG) potassium channel, sequence (Q12809 whole entry, looked up): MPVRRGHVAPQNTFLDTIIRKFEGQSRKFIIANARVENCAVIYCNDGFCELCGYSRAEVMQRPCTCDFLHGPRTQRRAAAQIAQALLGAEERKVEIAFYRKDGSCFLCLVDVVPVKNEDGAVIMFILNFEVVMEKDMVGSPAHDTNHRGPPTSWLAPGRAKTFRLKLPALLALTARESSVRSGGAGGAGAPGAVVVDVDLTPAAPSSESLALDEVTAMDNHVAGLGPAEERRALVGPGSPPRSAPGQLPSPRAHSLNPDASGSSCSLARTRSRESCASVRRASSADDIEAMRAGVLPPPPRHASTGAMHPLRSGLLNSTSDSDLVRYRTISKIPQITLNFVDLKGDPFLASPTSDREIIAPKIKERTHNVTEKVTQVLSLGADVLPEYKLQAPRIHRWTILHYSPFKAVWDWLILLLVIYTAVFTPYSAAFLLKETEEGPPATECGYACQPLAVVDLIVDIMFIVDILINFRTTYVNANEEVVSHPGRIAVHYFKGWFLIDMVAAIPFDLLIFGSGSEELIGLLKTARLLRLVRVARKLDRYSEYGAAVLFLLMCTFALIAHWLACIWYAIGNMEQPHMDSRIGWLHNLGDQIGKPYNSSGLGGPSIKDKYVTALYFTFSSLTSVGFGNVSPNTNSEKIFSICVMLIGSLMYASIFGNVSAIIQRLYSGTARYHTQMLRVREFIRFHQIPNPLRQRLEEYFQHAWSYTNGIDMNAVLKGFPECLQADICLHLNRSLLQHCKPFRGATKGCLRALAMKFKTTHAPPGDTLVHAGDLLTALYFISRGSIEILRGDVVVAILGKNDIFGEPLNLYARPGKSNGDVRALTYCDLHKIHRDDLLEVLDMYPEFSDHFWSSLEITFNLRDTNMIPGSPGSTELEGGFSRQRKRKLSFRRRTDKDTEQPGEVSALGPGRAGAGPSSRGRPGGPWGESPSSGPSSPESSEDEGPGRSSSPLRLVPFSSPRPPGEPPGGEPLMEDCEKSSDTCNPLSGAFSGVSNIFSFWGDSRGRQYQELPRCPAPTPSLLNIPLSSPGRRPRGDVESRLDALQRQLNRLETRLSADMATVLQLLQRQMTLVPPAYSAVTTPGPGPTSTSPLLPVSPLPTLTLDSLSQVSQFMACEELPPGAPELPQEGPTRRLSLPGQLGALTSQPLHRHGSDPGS

The experiment addresses human ether-à-go-go-related gene (hERG) potassium channel (human, UniProt Q12809). As to the kind of experiment: primary screen, population patch clamp on CHO cells stably expressing hERG.
In the case of `COc1cccc(C2=CC(c3cccc(OC)c3OC)n3nnnc3N2)c1` (stereo not drawn), the “hERG current change (%, negative = inhibition) at 1uM” value is 10.7%.

In the case of `CCCCN(C(=O)c1cc2ccccc2o1)c1c(N)n(CCC)c(=O)[nH]c1=O`, the “hERG current change (%, negative = inhibition) at 1uM” value came out at 6.81%.

For `Cc1cc(N2CCN(C(=O)c3ccco3)CC2)nc(-c2ccccc2)n1`, the “hERG current change (%, negative = inhibition) at 1uM” value was -22.6%.

For the compound `CCCNC(=O)c1noc2c1CCc1cc(OC)ccc1-2`, the “hERG current change (%, negative = inhibition) at 1uM” value turned out to be 13.1%.

For the compound `CCc1ccc(NC(=O)Nc2cc(C(=O)NCC3CCCO3)ccc2N2CC3CC(C2)c2cccc(=O)n2C3)cc1` (stereo not drawn), the “hERG current change (%, negative = inhibition) at 1uM” value is given as 11.3%.

`COc1ccc(C(=O)N2CCN(c3ccccn3)CC2)cc1`: the “hERG current change (%, negative = inhibition) at 1uM” value is 6.53%.

`CC(CCc1ccccc1)NC(=O)c1nnc(Cc2ccc(F)cc2)o1` (stereo not drawn): the “hERG current change (%, negative = inhibition) at 1uM” value stood at 4.74%.

For `Nc1nnc(SCc2ccc(F)cc2)s1`, the “hERG current change (%, negative = inhibition) at 1uM” value is given as -2.01%.

As to `O=C(CN1CCN(CCO)CC1)Nc1ccc(Cl)cc1C(=O)c1ccccc1`, the “hERG current change (%, negative = inhibition) at 1uM” value is recorded as -80.7%.

With `Cc1[nH]c2ccccc2c1C(=O)CN1C(=O)NC(C)(c2ccc(Cl)cc2Cl)C1=O` (stereo not drawn), the “hERG current change (%, negative = inhibition) at 1uM” value amounted to 13.3%.

Regarding `COc1ccccc1Oc1ccc(N/C=C2/CCCC2=O)cc1`, the “hERG current change (%, negative = inhibition) at 1uM” value is 6.15%.

As to `CN(C)S(=O)(=O)c1ccc2c(c1)C(=NO)c1cc(S(=O)(=O)N(C)C)ccc1-2`, the “hERG current change (%, negative = inhibition) at 1uM” value is 14.1%.

With `CCN1C(=O)CC(C(=O)Nc2ccc(F)cc2)SC1=Nc1ccc2c(c1)OCO2` (stereo not drawn), the “hERG current change (%, negative = inhibition) at 1uM” value is reported as 2.65%.

For `Cc1ccc(-c2nc(CS(=O)CC(=O)NCCCN3CC(C)CC(C)C3)c(C)o2)cc1` (stereo not drawn), the “hERG current change (%, negative = inhibition) at 1uM” value turned out to be 3.4%.

Turning to `O=C(Nc1ncccc1O)c1ccc(Oc2ccccc2)cc1`, the “hERG current change (%, negative = inhibition) at 1uM” value is 14.8%.

Take `COc1cccc(CNC(=O)c2ccc3nc[nH]c3c2)c1`: the “hERG current change (%, negative = inhibition) at 1uM” value was 15.7%.

As for `CC(C)(C)N(Cc1ccccc1)C(=O)COC(=O)c1ccc([N+](=O)[O-])o1`, the “hERG current change (%, negative = inhibition) at 1uM” value came to 16.1%.

With `CCOC(=O)CN1C(=O)C2(C(C#N)=C(N)Oc3ccccc32)C(C(=O)OC)=C1C` (stereo not drawn), the “hERG current change (%, negative = inhibition) at 1uM” value came to 11.9%.

`CSc1ncccc1C(=O)NCC12CC3CC(CC(C3)C1)C2`: the “hERG current change (%, negative = inhibition) at 1uM” value was 12.3%.

For the compound `COCc1cccc(NC(=O)CCc2ccccc2)c1`, the “hERG current change (%, negative = inhibition) at 1uM” value is given as 12.9%.

In the case of `Cc1cc(Cl)ccc1OCC(=O)NNC(=O)CCOc1ccccc1`, the “hERG current change (%, negative = inhibition) at 1uM” value is -0.757%.

Take `CCOc1nc(NCCc2ccc(OC)c(OC)c2)nc(NC(C)(C)CO)n1`: the “hERG current change (%, negative = inhibition) at 1uM” value amounted to 10.8%.

Regarding `CSc1nc(C)c2c(n1)N(c1ccc(C(C)C)cc1)CC2`, the “hERG current change (%, negative = inhibition) at 1uM” value came out at 7.39%.

For `O=[N+]([O-])c1ccc(Sc2cc[n+]([O-])c3ccccc23)c([N+](=O)[O-])c1`, the “hERG current change (%, negative = inhibition) at 1uM” value is on record as -0.0631%.

The values are drawn from publication PMC4336329 (PLoS ONE, 2015).
